# Structures can show the parent of a compound that is named as a salt. The list shows a part of the results.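 How the source made its calls: active = more than 2 SD below the DMSO mean: under 0.85 at 10 µM or 0.885 at 1 µM; inactive = the rest.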 Single values are uncertain, as repeats are few or missing. Where a SMILES comes first, the peptide text is derived from it. Bridges are numbered along the chain shown (N, C = ends). [ ]: non-standard residue; d: D form. Mpa = O=C(O)CCS
# Tested on: RPE1
# Assay: nucleolar normality score relative to DMSO (fraction of DMSO control); RPE1 is a non-cancer human cell line; higher = more normal nucleoli (less nucleolar stress)
# Details: 24 h
# 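Further: fixed cells immunolabelled for nucleolin and UBF, 40 image fields per well in 384-well plates, per-cell score = nucleolin nucleolar/nucleoplasm intensity ratio divided by the matching UBF ratio.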
Structure (SMILES),nucleolar normality score (1 µM),nucleolar normality score (10 µM)
CCNC(=O)Nc1ccc(-c2nc3c(c(N4CCOC[C@@H]4C)n2)CCN(C2COC2)C3)cc1,inactive: 0.986,inactive: 0.975
C[C@]12CC[C@@H]3c4ccc(O)cc4CC[C@H]3[C@@H]1CC[C@@H]2O [Estradiol],inactive: 0.99,inactive: 1.07
CC(NC(=O)Cc1cc(F)cc(F)c1)C(=O)NC(C(=O)OC(C)(C)C)c1ccccc1 (stereo not drawn),inactive: 1.07,inactive: 1.13
Cn1cc(CNCC2CCN(c3ncc(C(=O)NO)cn3)CC2)c2ccccc21,active: 0.496,active: 0.47
O=c1c2ccccc2nc(C=Cc2cccnc2)n1Cc1ccccc1,inactive: 0.912,inactive: 0.969
Nc1cccc2c1C(=O)N(C1CCC(=O)NC1=O)C2=O (stereo not drawn) [Pomalidomide],inactive: 0.989,inactive: 1.08
COc1ccc(S(=O)(=O)Nc2cc(-c3c(O)ccc4ccccc34)c(O)c3ccccc23)cc1,inactive: 0.932,inactive: 0.955
CC1(C)CCC(C)(C)c2cc(NC(=O)c3ccc(C(=O)O)cc3)ccc21 [Tamibarotene],active: 0.737,inactive: 0.85
C[n+]1cc2c3c(ccc2c2ccc4cc5c(cc4c21)OCO5)OCO3 [Sanguinarine chloride],active: 0.367,active: 0.27
C[C@@H](NC(=O)c1ncnc(N)c1Cl)c1ncc(C(=O)Nc2cc(C(F)(F)F)c(Cl)cn2)s1,inactive: 0.989,inactive: 1.08
O=C(/C=C/c1ccccc1)NC(NC(=S)Nc1cccc2cccnc12)C(Cl)(Cl)Cl (stereo not drawn) [Salubrinal],inactive: 1.05,inactive: 1.06
C=C(C)[C@@H]1CC[C@]2(C(=O)O)CC[C@]3(C)[C@H](CC[C@@H]4[C@@]5(C)CCC(=O)C(C)(C)[C@@H]5CC[C@]43C)[C@@H]12 [Betulonic acid],inactive: 1.03,inactive: 0.872
Nc1ccn([C@@H]2O[C@H](CO)[C@@H](O)C2(F)F)c(=O)n1 [Gemcitabine HCl],active: 0.486,inactive: 1.07
Fc1ccc(Cl)cc1-c1nc(Nc2ccncc2)c2nccnc2n1,inactive: 0.936,inactive: 1.05
CO[C@H]1C[C@@H]2CC[C@@H](C)[C@@](O)(O2)C(=O)C(=O)N2CCCC[C@H]2C(=O)O[C@H]([C@H](C)C[C@@H]2CC[C@@H](OCCO)[C@H](OC)C2)CC(=O)[C@H](C)/C=C(\C)[C@@H](O)[C@@H](OC)C(=O)[C@H](C)C[C@H](C)/C=C/C=C/C=C/1C [Everolimus (RAD001)],active: 0.878,inactive: 0.877
COc1cc2c(cc1OCCCN1CCCC1)N=C(N)C21CCC1,inactive: 0.953,inactive: 1.05
CN1c2ccccc2C(=O)Nc2cnc(Nc3ccc(N4CCC(O)CC4)cc3)nc21,inactive: 0.933,inactive: 1.05
O=C(O)CCCCC(CCSCc1ccccc1)SCc1ccccc1 (stereo not drawn),inactive: 0.999,inactive: 0.895
CC1(C)CC[C@]2(C(=O)O)CC[C@]3(C)C(=CC[C@@H]4[C@@]5(C)CC[C@H](O)C(C)(C)[C@@H]5CC[C@]43C)[C@@H]2C1 [Oleanolic Acid],inactive: 1.03,inactive: 0.887
CC(C)(C)c1nc(-c2cccc(NS(=O)(=O)c3c(F)cccc3F)c2F)c(-c2ccnc(N)n2)s1,active: 0.683,active: 0.601
CC(C)(C)c1nc(-c2cccc(NS(=O)(=O)c3c(F)cccc3F)c2F)c(-c2ccnc(N)n2)s1 [Dabrafenib Mesylate],inactive: 1.02,inactive: 1.08
Cc1cc(Nc2cc(N)ncn2)c(=O)n2c1C(=O)NC21CCCCC1,inactive: 0.958,inactive: 1.02
O=C(O)C1=CO[C@@H](O[C@@H]2O[C@H](CO)[C@@H](O)[C@H](O)[C@H]2O)[C@@H]2C(CO)=CC[C@H]12 [Geniposidic acid],inactive: 1.06,inactive: 0.864
Cc1ccc(Nc2ncc3c(n2)N(C)C(=O)N(c2cc(NC(=O)c4cccc(C(F)(F)F)c4)ccc2C)C3)cn1,active: 0.618,active: 0.589
COc1c(C)c2c(c(O)c1C/C=C(\C)CCC(=O)O)C(=O)OC2 [Mycophenolic acid],inactive: 1.07,inactive: 0.928
O.O=C([O-])c1ncccc1O.O=C([O-])c1ncccc1[O-].[H+].[O]=[V][OH] [VO-Ohpic trihydrate],inactive: 0.989,inactive: 0.949
O=C(c1ccc(/C=C/c2n[nH]c3ccccc23)cc1)N1CCNCC1,inactive: 0.974,inactive: 1.07

Structure (SMILES),nucleolar normality score (1 µM),nucleolar normality score (10 µM)
C/C(=C\C(=O)Nc1ccccc1C(=O)O)c1ccc2ccccc2c1,inactive: 0.982,inactive: 1.02
Cc1cc(Cl)ccc1OCCCC(=O)NO [Droxinostat],inactive: 1.02,inactive: 1.06
NS(=O)(=O)OC[C@@H]1C[C@@H](n2ccc3c(N[C@H]4CCc5ccccc54)ncnc32)C[C@@H]1O [Pevonedistat (MLN4924)],inactive: 1.03,inactive: 1.05
C[C@H](CC[C@@]1(O)O[C@H]2C[C@H]3[C@@H]4CC=C5C[C@@H](O[C@@H]6O[C@H](CO)[C@@H](O[C@@H]7O[C@@H](C)[C@H](O)[C@@H](O)[C@H]7O)[C@H](O)[C@H]6O[C@@H]6O[C@@H](C)[C@H](O)[C@@H](O)[C@H]6O)CC[C@]5(C)[C@H]4CC[C@]3(C)[C@H]2[C@@H]1C)CO[C@@H]1O[C@H](CO)[C@@H](O)[C@H](O)[C@H]1O [Protodioscin],inactive: 1.07,inactive: 0.941
CN(C)CCOc1ccc(-c2nc(-c3ccncc3)c(-c3ccc4c(c3)CC/C4=N\O)[nH]2)cc1,inactive: 1.05,inactive: 0.853
O=C1Cc2c([nH]c3ccc(Br)cc23)-c2ccccc2N1 [Kenpaullone],inactive: 0.973,inactive: 1.02
Cc1cc2c(C(N)=O)cccc2n1-c1nc2c(c(NCc3ccccc3)n1)COCC2,inactive: 0.998,inactive: 0.935
COc1ccc2c(c1)c(CC(=O)N1CCOCC1)c(C)n2C(=O)c1ccc(Cl)cc1,inactive: 1.04,active: 0.838
Cc1cc2c3c([n+](C)c4ccc(F)cc4c3c1)-c1cc(F)ccc1N2C [RHPS 4 methosulfate],inactive: 1.01,inactive: 0.987
CCC(C)C1NC(=O)C(Cc2ccc(O)cc2)NC(=O)C(CC(C)C)NC(=O)C2CCCN2C(=O)CCSSCC(C(=O)NC(CCCN=C(N)N)C(=O)NC(CCCN=C(N)N)C(N)=O)NC(=O)C(C(C)C)NC(=O)C2CCCN2C(=O)C(CC(=O)O)NC(=O)C(Cc2ccc(O)cc2)NC(=O)C(CO)NC1=O (stereo not drawn) ([Mpa]PLYISYDPVCRR-NH2; disulfide 1-11; configuration not given here),active: 0.678,inactive: 1.08
N#Cc1ccc(COC[C@H]2O[C@@H](n3c(NCc4ccc(Cl)c(Cl)c4)nc4c(N)ncnc43)[C@H](O)[C@@H]2O)cc1,inactive: 0.953,inactive: 1
CS(=O)(=O)c1ccc(-c2cnc(NCc3ccco3)n3cnnc23)cc1,inactive: 0.96,inactive: 0.962
CCn1nc(C2CCN(C(=O)CCO)CC2)nc1-c1cnc(N)c(-c2nnc(C(C)(C)C)o2)n1,inactive: 0.967,inactive: 1.08
COc1cccc2cc(-c3nc([C@H]4CC[C@H](C(=O)O)CC4)n4ncnc(N)c34)[nH]c12,inactive: 0.99,active: 0.659
Cc1c(C)c2c(c(C)c1O)CCC(C)(C(=O)O)O2 (stereo not drawn) [Trolox],inactive: 1.05,inactive: 1.04
COc1cc(C2Oc3cc([C@H]4Oc5cc(O)cc(O)c5C(=O)[C@@H]4O)ccc3OC2CO)ccc1O (stereo partly drawn) [Silibinin],active: 0.832,active: 0.748
CN1CCN(c2ccc(Nc3ncc4cc(C#N)c(=O)n(C5CCCC5)c4n3)cc2)CC1,inactive: 0.941,inactive: 0.924
CC#CC(=O)N1CCC(n2c(=O)n(-c3ccc(Oc4ccccc4)cc3)c3c(N)ncnc32)C1 (stereo not drawn) [ONO-4059 (GS-4059) hydrochloride],inactive: 0.981,inactive: 1
O=C(O)Cc1cccc(OCCCN(Cc2cccc(C(F)(F)F)c2Cl)CC(c2ccccc2)c2ccccc2)c1,inactive: 1.03,inactive: 1.09
C[C@]1(c2nc3c(C(N)=O)cccc3[nH]2)CCCN1 [Veliparib (ABT-888)],inactive: 0.927,inactive: 1.02
OC(CC1c2ccccc2-c2cncn21)C1CCCCC1 (stereo not drawn),inactive: 0.987,inactive: 1.04
O=C1C(c2[nH]c3ccccc3c2O)=Nc2ccccc21 [Indigo],inactive: 0.989,inactive: 0.91
COC(=O)Nc1ccc(-c2nc(N3CCOCC3)c3cnn(C4CCN(C(=O)OC)CC4)c3n2)cc1,inactive: 1.11,inactive: 1.11
NCCCC(O)(P(=O)(O)O)P(=O)(O)O [Alendronate sodium trihydrate],inactive: 1.11,inactive: 1.07
N.N.O=C([O-])C[O-].[Pt+2] [Nedaplatin],inactive: 0.988,inactive: 1.05
C[C@H](CC(=O)C[C@@H](C)[C@H]1C[C@H](O)[C@@]2(C)C3=C(C(=O)C[C@]12C)[C@@]1(C)CCC(=O)C(C)(C)[C@@H]1C[C@@H]3O)C(=O)O [Ganoderic acid A],inactive: 1.06,inactive: 1.09
Cc1cnc(Nc2ccc(F)cc2Cl)nc1-c1c[nH]c(C(=O)NC(CO)c2cccc(Cl)c2)c1 (stereo not drawn),inactive: 1.01,inactive: 1

# — the supplement of paper PMC10723795
